# Screen size: about 310,000 compounds; about 14,000 (4.5%) showed an effect of 50% or more. The effect is printed as a negative number. This is one part of the list.
# Target: human ether-à-go-go-related gene (hERG) potassium channel (human, UniProt Q12809)
# Assay: primary screen, population patch clamp on CHO cells stably expressing hERG
# 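Further: peak tail current of the secondary pulse compared with the same well before compound.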
# Sequence of human ether-à-go-go-related gene (hERG) potassium channel (Q12809 whole entry, looked up): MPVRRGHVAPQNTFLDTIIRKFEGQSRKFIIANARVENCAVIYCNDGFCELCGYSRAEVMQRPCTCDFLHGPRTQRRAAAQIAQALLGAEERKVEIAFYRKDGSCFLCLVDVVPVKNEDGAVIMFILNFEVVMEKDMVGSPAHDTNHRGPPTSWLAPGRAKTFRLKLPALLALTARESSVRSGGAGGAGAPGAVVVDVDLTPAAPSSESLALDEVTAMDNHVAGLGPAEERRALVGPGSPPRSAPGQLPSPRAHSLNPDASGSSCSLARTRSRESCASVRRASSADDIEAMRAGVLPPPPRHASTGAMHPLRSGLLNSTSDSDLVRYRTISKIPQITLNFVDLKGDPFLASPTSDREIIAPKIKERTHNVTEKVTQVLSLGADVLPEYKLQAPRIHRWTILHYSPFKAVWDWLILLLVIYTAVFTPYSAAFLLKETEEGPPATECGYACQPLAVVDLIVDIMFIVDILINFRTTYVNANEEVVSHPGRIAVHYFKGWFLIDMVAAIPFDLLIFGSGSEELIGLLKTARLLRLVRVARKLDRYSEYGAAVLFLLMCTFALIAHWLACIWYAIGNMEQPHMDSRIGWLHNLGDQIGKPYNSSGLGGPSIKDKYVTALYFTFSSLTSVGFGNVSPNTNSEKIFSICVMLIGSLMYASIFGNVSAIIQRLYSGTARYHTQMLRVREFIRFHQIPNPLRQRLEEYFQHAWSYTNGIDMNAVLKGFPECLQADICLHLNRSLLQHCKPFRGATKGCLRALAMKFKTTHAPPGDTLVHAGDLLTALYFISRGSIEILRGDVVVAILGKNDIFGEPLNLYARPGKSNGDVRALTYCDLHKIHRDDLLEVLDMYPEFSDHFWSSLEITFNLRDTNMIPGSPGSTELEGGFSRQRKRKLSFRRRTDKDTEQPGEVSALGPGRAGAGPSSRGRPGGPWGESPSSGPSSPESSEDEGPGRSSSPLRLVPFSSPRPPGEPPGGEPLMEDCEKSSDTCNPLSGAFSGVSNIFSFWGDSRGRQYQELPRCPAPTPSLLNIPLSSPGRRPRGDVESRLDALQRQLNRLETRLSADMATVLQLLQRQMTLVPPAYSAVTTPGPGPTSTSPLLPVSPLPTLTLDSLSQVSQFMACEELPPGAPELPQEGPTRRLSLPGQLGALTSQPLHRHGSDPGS
row,Structure (SMILES),"hERG current change (%, negative = inhibition) at 10uM [%]"
1,COCCSc1nnc(NC(=O)c2cc(C(=O)OC)cc([N+](=O)[O-])c2)s1,11.4
2,CC(OC(=O)c1cccs1)C(=O)NCc1ccco1 (stereo not drawn),-5.28
3,O=C(NCCC1=CCCCC1)c1ccc(-n2cncn2)cc1,-29.2
4,C=CCN(CC=C)S(=O)(=O)c1ccc(C(=O)Nc2nnc(COC)o2)cc1,14.2
5,COc1ccc(-c2cc(C(=O)N3CCCc4ccccc43)no2)cc1OC,-16
6,COc1cc(C(=O)Nc2ccc3c(c2)C(=O)N(CCC(=O)O)C3=O)cc(OC)c1OC,-1.57
7,CC(C)(C)OC(=O)N[C@@H](C(=O)OC(C)(C)C)c1ccc(C(F)(F)F)cc1,1.97
8,CCNC(=O)C(=O)Nc1cc2c3c(c1)CCC(=O)N3CCC2,19.8
9,CC(C)c1ccc(NC(=O)CNC(=O)Cn2ccc3ccccc3c2=O)cc1,16.7
10,Oc1ccc(C=Nc2ccc3ncccc3c2)c(O)c1,3.7
11,CCOC(=O)CNC(=O)N1CCCC(C(=O)c2ccccc2SC)C1 (stereo not drawn),7.47
12,Cc1cc(-c2nn(-c3ccccc3F)cc2CN2CCCC(O)C2)c(C)s1 (stereo not drawn),-9.16
13,Cn1c(C(O)c2ccc3c(c2)OCO3)nc2ccccc21 (stereo not drawn),5.63
14,CCc1c(C)nc2ncnn2c1N1CCC(C(=O)NCc2cccc(OC)c2)CC1,-38.6
15,O=C1c2ccccc2C(=O)N1CCc1nc(-c2ccncc2)no1,-13.9
16,Cc1cc(N2CCOCC2)n2ncc(-c3ccccc3)c2n1,-18.5
17,C=C(C)c1cccc(C(C)(C)NC(=O)Nc2ccc(Cl)cn2)c1,-3.58
18,CC(=O)CCn1c(=O)n(CCC(C)=O)c(=O)n(CCC(C)=O)c1=O,10.7
19,COc1ccc(CN2C(=O)c3ccccc3C2C(=O)NC2CCCC2)c(OC)c1 (stereo not drawn),-6.02
20,COC(=O)c1nnn(-c2ccc(F)c(Cl)c2)c1C(=O)OC,13.3
21,O=C(COC(=O)/C=C/c1ccccc1Cl)NC1CCCC1,14.6
22,CCOC(=O)C(C(=O)Nc1ccc(C)cc1)C1CCCCC1 (stereo not drawn),0.407

row,Structure (SMILES),"hERG current change (%, negative = inhibition) at 10uM [%]"
1,Cc1cc(-c2ccco2)n(CC(=O)NCCN(C)C)n1,19.2
2,Cc1ccc(Cl)cc1N1CCN(S(=O)(=O)c2c(C)[nH]c(C)c2C(=O)N2CCCCC2)CC1,12.9
3,CC1CCCCC1NC(=O)c1ccc(S(=O)(=O)N2CCN(C)CC2)cc1 (stereo not drawn),6.01
4,CC(C)n1cc(CN2CCCC(CO)(Cc3cccc(Cl)c3)C2)cn1 (stereo not drawn),-24
5,Fc1ccc2cnc(-c3ccccc3)c(-c3cccc(C(F)(F)F)c3)c2c1,22.3
6,Cc1cccc(C)c1NC(=O)CSc1nnc(-c2cnccn2)n1C,15.2
7,O=[N+]([O-])c1cccc(Cl)c1NCCNS(=O)(=O)c1ccccc1,-15.2
8,C/C(=N/NS(=O)(=O)c1cccc([N+](=O)[O-])c1)c1ccncc1,16.3
9,CCS(=O)(=O)c1nc(S(=O)(=O)c2ccc(C)cc2)c(N2CC(C)OC(C)C2)s1 (stereo not drawn),-37.6
10,CCN(CC(O)c1cccc(O)c1)C(=O)C12CC3CC(CC(C3)C1)C2.Cl (stereo not drawn),-23.6
11,Cc1cc2oc(=O)cc(CN3CCOCC3)c2cc1Cl,12.9
12,COc1ccc(S(=O)(=O)N(C)c2ccc(C(=O)N3CCCCC3)cc2)cc1OC,-8.57
13,CCC(=O)Nc1ccc2nc(SCC(=O)N3CCOCC3)sc2c1,-17.2
14,COc1cc(C(c2c(C)[nH][nH]c2=O)c2c(C)[nH][nH]c2=O)ccc1OS(=O)(=O)c1ccccc1,0.583
15,Cc1onc(-c2ccccc2)c1C(=O)Nc1nnc(CC(C)C)s1,-15.4
16,Cc1nc(NCCc2ccccc2)c2nnn(Cc3ccccc3Cl)c2n1,25.9
17,CCOC(=O)N1CCN(c2ncnc3scc(-c4ccccc4)c23)CC1,-32.6
18,Fc1cc(Br)ccc1NC(=S)Nc1ccccc1,14.1
19,COC(=O)C(C(=O)OC)N1C(=O)CCC1=O,-7.02
20,O=C(O)/C=C/C(=O)N(CC1CCCO1)C1CC(=O)N(c2c(Cl)cccc2Cl)C1=O (stereo not drawn),19.2
21,CCC(Oc1ccccc1)C(=O)Nc1cc(Cl)ccc1-n1cncn1 (stereo not drawn),-14.1
22,COC(=O)c1c(C)nc(C)c(C(=O)OC)c1-c1cccs1,1.61

row,Structure (SMILES),"hERG current change (%, negative = inhibition) at 10uM [%]"
1,O=C(O)c1ccc(Oc2cccc([N+](=O)[O-])c2)cc1C(=O)O,13.2
2,CC(NC(=O)c1ccccc1Cl)C1CC2CCC1C2 (stereo not drawn),20.8
3,CC(=O)O[C@H]1C(=O)[C@@]2(C)[C@H]([C@H](OC(=O)c3ccccc3)[C@]3(O)C[C@H](OC(=O)[C@H](O)C(NC(=O)c4ccccc4)c4ccccc4)C(C)=C1C3(C)C)[C@]1(OC(C)=O)CO[C@@H]1C[C@@H]2O (stereo partly drawn),17.1
4,COc1ccc(C)cc1-n1c(SCC(=O)Nc2cccc(C(=O)O)c2)nc2ccccc2c1=O,12
5,CNC(=O)c1ccc(NC(=O)c2cccc(C(F)(F)F)c2)cc1,10.1
6,COc1ccc2cc(C(=O)NCc3ccccc3CN3CCCC3)ccc2c1,-68.2
7,COc1cccc(OC)c1C(=O)NNS(=O)(=O)c1ccc2ccccc2c1,-5.2
8,COc1ccccc1-c1ccc(SCC(=O)NC2CCCC2)nn1,-24.5
9,CCSc1nc(N)c(C#N)c(-c2ccco2)c1C#N,1.16
10,CCSc1nnc(Cn2c(=O)sc3ccccc32)n1-c1ccccc1C,-2.71
11,COc1ccc(CCNC(=O)COc2ccc3c(c2)OCO3)cc1,-6.6
12,Cc1cc2cc(C)c(NCCNC(=O)c3cccs3)nc2cc1C,-3.57
13,CC(C)CNC(=O)c1cc(S(=O)(=O)N2CCOCC2)ccc1N1CCCC1,6.7
14,CN1CCN(S(=O)(=O)c2cc([N+](=O)[O-])ccc2N/N=C/c2ccc(Cl)cc2)CC1,-1.71
15,CCCn1c(N)c(C(=O)CN(C)CC(=O)Nc2ccc(F)cc2)c(=O)[nH]c1=O,-70.6
16,Cc1noc2ncnc(Sc3ccccc3Cl)c12,3.95
17,Cc1cc(C)n(CC(O)COc2c(C)cccc2C)n1 (stereo not drawn),-1.28
18,CC1(NC(=O)Nc2cc([N+](=O)[O-])ccc2O)CCS(=O)(=O)C1 (stereo not drawn),26.3
19,COCCCNC(=O)CCSc1ccc(C)cc1,-0.854
20,COc1ccc(-c2cc(C(=O)Oc3ccc([N+](=O)[O-])cc3)c3ccccc3n2)cc1,7.78
21,CC1C(=O)N2CCCc3cc(NC(=O)C(=O)NCCc4c[nH]c5ccccc45)cc1c32 (stereo not drawn),-17.7
22,COc1cc(C(=O)Nc2scc(-c3ccccc3)c2C(=O)O)cc(OC)c1OC,-11.5

row,Structure (SMILES),"hERG current change (%, negative = inhibition) at 10uM [%]"
1,Cc1ccc(C)c(Cn2nnc3c(=O)[nH]c(C4CCCN(C(=O)C5CCC5)C4)nc32)c1 (stereo not drawn),-32.4
2,Cc1cc(-c2ccccc2)n2ncnc2n1,12.5
3,CCc1ccccc1NCC(=O)Nc1ccc(Cl)c(C(F)(F)F)c1,9.3
4,CCc1ccc(N(CC(=O)N2CCOCC2)S(C)(=O)=O)cc1,16.1
5,CCOc1ccc(C(=O)NCC(=O)NCCCn2nc(C)cc2C)cc1OCC,9.39
6,Cc1ccccc1-n1ncc2c1CC(C)(C)CC2NC(=O)CSc1ccncc1 (stereo not drawn),-8.26
7,OC1/C(=C/c2ccc(Cl)cc2Cl)N2CCC1CC2 (stereo not drawn),3.66
8,Cc1cc2c(ccc3c2no[n+]3[O-])nn1,-10.6
9,CC(=O)O[C@H]1CSC[C@H]1NC(=O)c1ccccc1,8.4
10,C[C@H](NC(=O)c1nc[nH]c1C(=O)N[C@@H](Cc1ccccc1)C(=O)OCc1ccccc1)C(=O)OCc1ccccc1,8.42
11,Fc1ccccc1OCCCCCN1CCCC1,-9.31
12,COC(=O)c1ccc(CSc2nc(C(F)(F)F)c3c(c2C#N)CCC3)o1,-3.53
13,CC(Sc1cnc2ccccc2n1)C(=O)O (stereo not drawn),15.9
14,NS(=O)(=O)c1ccc(CNC(=O)/C=C/c2ccccc2[N+](=O)[O-])cc1,0.127
15,COc1cccc(NC(=O)c2ccnc(N3CCC(C(=O)NCc4cc(OC)ccc4OC)CC3)c2)c1,-31.7
16,Cn1c(=O)c2c(nc(SCc3nc(N)nc(N4CCCCC4)n3)n2C)n(C)c1=O,-5.28
17,Cc1cccc(Nc2nnc(SCC(=O)NCc3cccs3)s2)c1,21.9
18,Fc1ccccc1N1CCN(CC2CC3C=CC2C3)CC1 (stereo not drawn),-1.09
19,COc1ccc(CN2CC3CC(C2)c2cccc(=O)n2C3)cc1OC (stereo not drawn),-5.24
20,COc1ccc(S(=O)(=O)N(C)CC(=O)N2CCN(Cc3ccccc3)CC2)cc1C,-36.8
21,Cc1ccc(-n2ncc3c(NNC(=O)c4ccco4)ncnc32)cc1C,12.2

# — publication PMC4336329 (PLoS ONE, 2015)
